# In all, about 310,000 compounds went through this assay and about 14,000 (4.5%) showed an effect of 50% or more. Effects have a minus sign here. The list shows a part of the results. Where a SMILES comes first, the peptide text is derived from it. The star is where a group is joined. Piperidide = C1CCN(*)CC1; PhAc = O=C(Cc1ccccc1)*
# Target: human ether-à-go-go-related gene (hERG) potassium channel (human, UniProt Q12809)
# Assay: primary screen, population patch clamp on CHO cells stably expressing hERG
# 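Note: peak tail current of the secondary pulse compared with the same well before compound.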
# Chain of human ether-à-go-go-related gene (hERG) potassium channel (Q12809 whole entry, looked up): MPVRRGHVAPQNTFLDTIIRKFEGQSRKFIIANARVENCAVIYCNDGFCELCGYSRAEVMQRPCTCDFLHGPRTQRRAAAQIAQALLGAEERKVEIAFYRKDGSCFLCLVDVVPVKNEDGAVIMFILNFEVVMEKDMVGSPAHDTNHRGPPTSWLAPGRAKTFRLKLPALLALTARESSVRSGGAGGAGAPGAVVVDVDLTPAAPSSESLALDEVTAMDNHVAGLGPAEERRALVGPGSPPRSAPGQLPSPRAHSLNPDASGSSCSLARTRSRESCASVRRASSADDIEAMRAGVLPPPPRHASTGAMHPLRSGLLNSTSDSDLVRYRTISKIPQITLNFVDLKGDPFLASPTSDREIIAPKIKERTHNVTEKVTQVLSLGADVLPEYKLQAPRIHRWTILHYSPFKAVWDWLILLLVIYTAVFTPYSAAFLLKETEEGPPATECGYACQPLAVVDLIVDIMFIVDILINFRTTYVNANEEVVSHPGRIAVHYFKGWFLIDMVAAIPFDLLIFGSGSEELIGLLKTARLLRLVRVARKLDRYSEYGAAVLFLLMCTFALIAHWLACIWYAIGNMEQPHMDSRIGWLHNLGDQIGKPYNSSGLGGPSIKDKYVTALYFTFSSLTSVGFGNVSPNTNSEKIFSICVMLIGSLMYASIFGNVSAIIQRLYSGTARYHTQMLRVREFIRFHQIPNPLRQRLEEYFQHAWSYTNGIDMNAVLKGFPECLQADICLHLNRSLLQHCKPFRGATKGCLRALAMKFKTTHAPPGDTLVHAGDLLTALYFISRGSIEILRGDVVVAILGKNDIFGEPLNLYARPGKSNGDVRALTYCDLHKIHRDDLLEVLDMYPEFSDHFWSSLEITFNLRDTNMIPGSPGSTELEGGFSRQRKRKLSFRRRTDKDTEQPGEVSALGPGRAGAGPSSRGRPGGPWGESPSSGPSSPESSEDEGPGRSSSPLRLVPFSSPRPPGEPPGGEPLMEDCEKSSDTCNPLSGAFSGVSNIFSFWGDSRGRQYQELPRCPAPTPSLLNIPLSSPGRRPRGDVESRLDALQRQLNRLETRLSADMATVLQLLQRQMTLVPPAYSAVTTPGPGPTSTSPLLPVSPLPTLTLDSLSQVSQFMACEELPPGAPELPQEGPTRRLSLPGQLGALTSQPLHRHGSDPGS
row,Compound,"hERG current change (%, negative = inhibition) at 10uM [%]"
1,CCOC(=O)C1CCCCN1Cc1ccc(-c2ccccc2)cc1 (stereo not shown),16
2,COc1ccc(CNC(=O)c2cc3ccccc3o2)cc1OC,16.4
3,CCOC(=O)c1oc2cc(O)ccc2c(=O)c1-c1ccc(OC)cc1,5.43
4,CCNc1ccc(Br)cc(C(=O)/C=C/c2ccc(Cl)cc2Cl)c1=O,8.28
5,COc1ccc(-c2cc(C(=O)N(C)Cc3cccc(OC)c3OC)c3ccccc3n2)cc1OC,-28.8
6,CC(=O)Nc1cccc(C(=O)Nc2ccccc2N2CCOCC2)c1,-0.962
7,CC1CCN(S(=O)(=O)c2ccc(C(=O)NCc3ccco3)cc2)CC1,-9.69
8,O=C(NNC1CC(=O)N(c2ccc3c(c2)OCCO3)C1=O)c1ccccc1 (stereo not shown),-1.58
9,Cc1ccnc(NS(=O)(=O)c2ccccc2)n1,7.3
10,Cc1ccc(S(=O)(=O)N2CCCCC2)cc1NC(=O)COC(=O)c1c(F)cccc1F,-7.29
11,O=C(NNC(=O)C12CC3CC(CC(C3)C1)C2)c1cccc([N+](=O)[O-])c1,3.97
12,C=CCn1c(SCC(=O)Nc2cc(OC)c(NC(=O)c3ccco3)cc2OC)nnc1-c1ccncc1,-10.2
13,O=C(c1cnc2n(c1=O)CCS2)N1CCN(c2ccc([N+](=O)[O-])cc2)CC1,-63
14,Cc1ccc(-c2nc3ncccn3c2NC2CCCCC2)o1,-37.7
15,O=C(Cc1ccc(S(=O)(=O)N2CCOCC2)s1)NCCOc1ccccc1,-8.35
16,CCOC1=NN(c2ccc(Cl)cc2)C(=O)/C1=C\N(C)C,-29.6
17,O=C(Nc1ccc(F)cc1)C1CCN(C(=O)NCc2ccccc2)CC1,-15.4
18,COc1ccc2nc(COC(=O)c3cccc([N+](=O)[O-])c3)c(C(C)=O)[n+]([O-])c2c1,12.8
19,CC(C)(C)NC(=O)NC(=O)COC(=O)c1ccc(OC(F)F)cc1,-0.651
20,C[n+]1ccc(-c2cc[n+](C)cc2)cc1.[Cl-],-0.326
21,O=C(O)c1ccc(CSc2n[nH]c(-c3ccco3)n2)cc1,3.26
22,Cn1c(=O)n(C)c2cc([N+](=O)[O-])c(N3CCN(C(=O)c4ccccc4)CC3)cc21,-36.1

row,Compound,"hERG current change (%, negative = inhibition) at 10uM [%]"
1,O=C(CSc1nc2ccccc2n1CC(=O)N1CCCC1)NCc1ccc2c(c1)OCO2,-15.9
2,Cc1cc(N/N=C/c2ccc(O)cc2O)nc(N2CCOCC2)n1,-14.3
3,COc1ccc(Nc2nnc(SCC(=O)c3cc(C)n(CC4CCCO4)c3C)s2)cc1 (stereo not shown),4.82
4,COc1ccc(-c2nc(-c3ccncc3)no2)cc1,10.5
5,Cc1ccc(CN2C(=O)C(C)Oc3ccccc32)cc1 (stereo not shown),1.89
6,CC(=O)c1cccc(OCc2cc(C(=O)N(C)CCC3CCOCC3)no2)c1,-3.01
7,O=C(c1ccc2c(=O)n3c(nc2c1)CCCCC3)N1CCN(c2ccccc2F)CC1,-13.6
8,C[N+]1(C)CCc2cc3c(cc2[C@H]1[C@@H]1OC(=O)c2c1ccc1c2OCO1)OCO3.[Br-],24.4
9,COC(=O)[C@H]1C2CCC(C(=O)OC)(CC2)[C@H]1C(=O)OC,18.9
10,Cn1c(=O)n(C)c2cc([N+](=O)[O-])c(N3CCNCC3)cc21,5.58
11,COc1cccc(CC(=O)NC2CCCN(Cc3ccccc3F)C2)c1 (stereo not shown),-5.72
12,CCCc1ccc(C2C3=C(CC(C)(C)CC3=O)NC3=C2C(=O)c2ccccc23)cc1 (stereo not shown),-10.5
13,O=C(Nc1cccc(S(=O)(=O)N2CCCCCC2)c1)C1CCC1,-57.4
14,CCc1ccc(C(C(=O)NCc2ccc(OC)cc2)N(CCOC)C(=O)Cc2cccs2)cc1 (stereo not shown),-40.1
15,Cc1ccc(C(=O)Sc2cccccc2=O)cc1,-2.53
16,Cc1ccc(Cl)cc1N(CC(=O)NCc1ccc2c(c1)OCO2)S(C)(=O)=O,-29.6
17,COc1ccc(OC)c(N(CC(=O)Nc2ccccc2)S(C)(=O)=O)c1,11.4
18,COC(=O)CCC(=O)OC1(C)C(=O)C=C2C=C(C3CC3)N(Cc3ccccc3)C=C2C1=O (stereo not shown),-2.31
19,O=C(COC(=O)c1sc2cc(F)ccc2c1Cl)Nc1ncc(Cl)cc1Cl,10.3
20,Cc1ccc(S(=O)(=O)NCC(c2ccco2)N2CCc3ccccc32)cc1 (stereo not shown),-13.6
21,COc1ccc(-c2cn[nH]c2-c2ccc(O)cc2O)cc1,6.35
22,COC(=O)c1cccc(S(=O)(=O)N2CCC(n3nnc4cc(F)ccc43)CC2)c1,-34.3

row,Compound,"hERG current change (%, negative = inhibition) at 10uM [%]"
1,COc1cccc2cc(C(N)=O)oc12,15.4
2,COc1cc(N=Cc2c(CO)cnc(C)c2O)cc(OC)c1OC,13.5
3,O=C(Nc1ccc(Br)cc1)C1CCCN(S(=O)(=O)c2cccnc2)C1 (stereo not shown),-29.8
4,O=C(CNC(=O)Cc1ccccc1)NCC(=O)N1CCCCC1 (PhAc-Gly-Gly-Piperidide),6.06
5,CC(C)(C)C(=O)C(Cc1ccccc1)n1cncn1 (stereo not shown),5.96
6,O=C(CC1OC(=O)c2ccccc21)Nc1cc(Cl)ccc1N1CCCC1 (stereo not shown),-8.18
7,CC(c1ccccc1)N1C(=O)/C(=C/c2ccncc2)SC1=S (stereo not shown),3.24
8,C=CCn1c(SCC(=O)N2CCOCC2)nc2c([nH]c3ccccc32)c1=O,-52.9
9,C/C(Cn1ncc(N2CCOCC2)c(Cl)c1=O)=N\O,18.3
10,O=C(NC1CC1)C1CCCN(C(=O)Nc2ccc(F)cc2)C1 (stereo not shown),0.869
11,CSc1nc2ccc(C)cc2c(=O)n1-c1cccnc1,-3.76
12,COc1ccc(C(=O)Oc2ccc3ccc(=O)oc3c2)cc1,32.4
13,COc1ccc(N2CCN(C(=O)c3cccc(S(=O)(=O)N4CCCc5ccccc54)c3)CC2)cc1,-21.4
14,COc1ccc(C)cc1S(=O)(=O)n1cnc2ccccc21,12
15,O=C(COc1ccccc1)Nc1nnc(-c2ccc(Cl)s2)o1,-1.67
16,Cn1c(=O)c2c(nc(OCCc3ccccc3)n2C)n(C)c1=O,7.2
17,CN(Cc1ccccc1)Cc1nc2c(c(=O)n(C)c(=O)n2C)n1Cc1ccc(F)cc1,-55.6
18,CCOC(=O)N/N=C/c1cccc(Cl)c1Cl,5.82
19,CCCN1CCc2c(sc3nc(SC)n(-c4ccccc4)c(=O)c23)C1,15
20,COc1ccc(OC)c(C(=O)Cn2cnc3ccccc3c2=O)c1,-5.63
21,COCc1cc(C)nc(SCC(=O)Nc2ccc(C)c(C)c2)c1C#N,1.53
22,Cc1cccc[n+]1CC(=O)c1ccc2c(c1)OCCO2.[Br-],11.8

row,Compound,"hERG current change (%, negative = inhibition) at 10uM [%]"
1,COc1cccc(-c2csc(N3CCN(C(=O)Nc4ccccc4OC)CC3)n2)c1,-23.7
2,COc1ccc2[nH]c(=O)c(CN(CC3CCCO3)C(=S)Nc3cccc(C)c3)cc2c1 (stereo not shown),16.3
3,COc1ccc(CCNC(=O)/C=C\c2ccccc2)cc1OC,-7.74
4,CC[N+](CC)(CC)CCOc1ccc(/C=C/c2ccccc2)cc1.[I-],-46.6
5,COc1ccc2nc(NC(=O)CSc3nnc(N)s3)sc2c1,3.74
6,CCOC(=O)C1CCN(C(=O)C2CCCN(S(=O)(=O)c3ccc(OCC)c(Cl)c3)C2)CC1 (stereo not shown),-40.8
7,NNc1nc(C(F)(F)F)nc2ccccc12,-3.77
8,CC(NC(=O)CNC(=S)N(Cc1cccs1)C1CCCC1)c1ccccc1 (stereo not shown),-11.8
9,Oc1c(C(c2ccco2)N2CCC3(CC2)OCCO3)sc2ncnn12 (stereo not shown),1.38
10,Cl.Clc1ccccc1CN1CCN(/N=C/c2ccncc2)CC1,-24.3
11,CC(=O)NCCC(Cc1ccccc1)c1ccco1 (stereo not shown),5.91
12,N#CCSc1nc2c(c(C3CC=CCC3)c1C#N)CCC2 (stereo not shown),11.8
13,COc1cccc(CNC(=O)c2ccc(C)c(NC3=NC4CS(=O)(=O)CC4S3)c2)c1 (stereo not shown),-8.85
14,CC/C(=N/O)c1cnnc(SC)n1,6.56
15,COc1cccc(-c2ccc(NC(=O)C3CCCN(CCCn4nc(C)cc4C)C3)cc2)c1 (stereo not shown),-66
16,COc1ccc(OC(C)C(=O)N2CCC(C)CC2)cc1 (stereo not shown),-5.47
17,CCOC(=O)c1cnc2ccc(C)cc2c1NCCO,-66.4
18,CCc1nnc(NC(=O)c2cccc(C(=O)Nc3nnc(CC)s3)n2)s1,-30.5
19,Cc1ccc(C)c(NC(=S)N2CCN(CCO)CC2)c1,-4.63
20,O=C(Cc1c[nH]c2ccccc12)N/N=C/c1ccc(F)cc1,6.33
21,Cc1ccc(C)c(NC(=O)CCC(=O)OC(C(=O)c2ccccc2)c2ccccc2)c1 (stereo not shown),-20.8
22,Cc1c(Cc2ccc3c(c2)OCO3)sc(NC(=O)C2CC2)c1C(N)=O,-4.31
